In paper PMC9911399, “Two distinct binding modes provide the RNA-binding protein RbFox with extraordinary sequence specificity”:
Changes are numbered by the printed parent chain; changes in the protein carry UniProt numbers. Some of the results follow.

B1: UGAUCAC (DNA:RNA)
RNA: GGGAGACCGGAAUUCAGAUUGUCCUGAUCACUUAAAUCCCGUCGUAGCCACCA
DNA 1: CAATCTGAATTCCGGTCTCCC
DNA 2: TGGTGGCTACGACGGGATT
B2: ACCGUGG (DNA:RNA)
RNA: GGGAGACCGGAAUUCAGAUUGUCCACCGUGGUUAAAUCCCGUCGUAGCCACCA
DNA 1: CAATCTGAATTCCGGTCTCCC
DNA 2: TGGTGGCTACGACGGGATT
B3: CCGGCGA (DNA:RNA)
RNA: B2 RNA with A25C, C27G, U29C, G31A
DNA 1: CAATCTGAATTCCGGTCTCCC
DNA 2: TGGTGGCTACGACGGGATT
B4: AGCCACC (DNA:RNA)
RNA: B2 RNA with C26G, G28C, U29A, G30C, G31C
DNA 1: CAATCTGAATTCCGGTCTCCC
DNA 2: TGGTGGCTACGACGGGATT
B5: AGAAUUA (DNA:RNA)
RNA: B2 RNA with C26G, C27A, G28A, G30U, G31A
DNA 1: CAATCTGAATTCCGGTCTCCC
DNA 2: TGGTGGCTACGACGGGATT
B6: GGGCUUG (DNA:RNA)
RNA: B2 RNA with A25G, C26G, C27G, G28C, G30U
DNA 1: CAATCTGAATTCCGGTCTCCC
DNA 2: TGGTGGCTACGACGGGATT
B7: AAUGAGG (DNA:RNA)
RNA: B2 RNA with C26A, C27U, U29A
DNA 1: CAATCTGAATTCCGGTCTCCC
DNA 2: TGGTGGCTACGACGGGATT
B8: GAUUAGA (DNA:RNA)
RNA: B2 RNA with A25G, C26A, C27U, G28U, U29A, G31A
DNA 1: CAATCTGAATTCCGGTCTCCC
DNA 2: TGGTGGCTACGACGGGATT
B9: ACUAAUU (DNA:RNA)
RNA: B2 RNA with C27U, G28A, U29A, G30U, G31U
DNA 1: CAATCTGAATTCCGGTCTCCC
DNA 2: TGGTGGCTACGACGGGATT
B10: AUGCACU (DNA:RNA)
RNA: B2 RNA with C26U, C27G, G28C, U29A, G30C, G31U
DNA 1: CAATCTGAATTCCGGTCTCCC
DNA 2: TGGTGGCTACGACGGGATT
B11: UCACUCU (DNA:RNA)
RNA: B2 RNA with A25U, C27A, G28C, G30C, G31U
DNA 1: CAATCTGAATTCCGGTCTCCC
DNA 2: TGGTGGCTACGACGGGATT
B12: GUCCCUG (DNA:RNA)
RNA: B2 RNA with A25G, C26U, G28C, U29C, G30U
DNA 1: CAATCTGAATTCCGGTCTCCC
DNA 2: TGGTGGCTACGACGGGATT
B13: ACCUUUC (DNA:RNA)
RNA: B2 RNA with G28U, G30U, G31C
DNA 1: CAATCTGAATTCCGGTCTCCC
DNA 2: TGGTGGCTACGACGGGATT
B14: UUUGUUU (DNA:RNA)
RNA: B2 RNA with A25U, C26U, C27U, G30U, G31U
DNA 1: CAATCTGAATTCCGGTCTCCC
DNA 2: TGGTGGCTACGACGGGATT
B15: UAAGAGC (DNA:RNA)
RNA: B1 RNA with G26A, U28G, C29A, A30G
DNA 1: CAATCTGAATTCCGGTCTCCC
DNA 2: TGGTGGCTACGACGGGATT
B16: GCUAUGG (DNA:RNA)
RNA: B2 RNA with A25G, C27U, G28A
DNA 1: CAATCTGAATTCCGGTCTCCC
DNA 2: TGGTGGCTACGACGGGATT
B17: AACCGAC (DNA:RNA)
RNA: B2 RNA with C26A, G28C, U29G, G30A, G31C
DNA 1: CAATCTGAATTCCGGTCTCCC
DNA 2: TGGTGGCTACGACGGGATT
B18: GGAAAUA (DNA:RNA)
RNA: B1 RNA with U25G, U28A, C29A, A30U, C31A
DNA 1: CAATCTGAATTCCGGTCTCCC
DNA 2: TGGTGGCTACGACGGGATT
B19: UAGCGGU (DNA:RNA)
RNA: B2 RNA with A25U, C26A, C27G, G28C, U29G, G31U
DNA 1: CAATCTGAATTCCGGTCTCCC
DNA 2: TGGTGGCTACGACGGGATT
B20: CCAAUUA (DNA:RNA)
RNA: B2 RNA with A25C, C27A, G28A, G30U, G31A
DNA 1: CAATCTGAATTCCGGTCTCCC
DNA 2: TGGTGGCTACGACGGGATT
B21: GCAUGAG (DNA:RNA)
RNA: B1 RNA with U25G, G26C, C29G, C31G
DNA 1: CAATCTGAATTCCGGTCTCCC
DNA 2: TGGTGGCTACGACGGGATT
B22: GACCUUG (DNA:RNA)
RNA: B2 RNA with A25G, C26A, G28C, G30U
DNA 1: CAATCTGAATTCCGGTCTCCC
DNA 2: TGGTGGCTACGACGGGATT
B23: AUUACGA (DNA:RNA)
RNA: B2 RNA with C26U, C27U, G28A, U29C, G31A
DNA 1: CAATCTGAATTCCGGTCTCCC
DNA 2: TGGTGGCTACGACGGGATT
B24: CAAGGCG (DNA:RNA)
RNA: B2 RNA with A25C, C26A, C27A, U29G, G30C
DNA 1: CAATCTGAATTCCGGTCTCCC
DNA 2: TGGTGGCTACGACGGGATT
B25: AGCGGGC (DNA:RNA)
RNA: B2 RNA with C26G, U29G, G31C
DNA 1: CAATCTGAATTCCGGTCTCCC
DNA 2: TGGTGGCTACGACGGGATT
B26: AUUCGUG (DNA:RNA)
RNA: B2 RNA with C26U, C27U, G28C, U29G, G30U
DNA 1: CAATCTGAATTCCGGTCTCCC
DNA 2: TGGTGGCTACGACGGGATT
B27: AAGACUU (DNA:RNA)
RNA: B2 RNA with C26A, C27G, G28A, U29C, G30U, G31U
DNA 1: CAATCTGAATTCCGGTCTCCC
DNA 2: TGGTGGCTACGACGGGATT
B28: GAUGCGC (DNA:RNA)
RNA: B2 RNA with A25G, C26A, C27U, U29C, G31C
DNA 1: CAATCTGAATTCCGGTCTCCC
DNA 2: TGGTGGCTACGACGGGATT
B29: AUGCACA (DNA:RNA)
RNA: B2 RNA with C26U, C27G, G28C, U29A, G30C, G31A
DNA 1: CAATCTGAATTCCGGTCTCCC
DNA 2: TGGTGGCTACGACGGGATT
B30: CCAAGGG (DNA:RNA)
RNA: B2 RNA with A25C, C27A, G28A, U29G
DNA 1: CAATCTGAATTCCGGTCTCCC
DNA 2: TGGTGGCTACGACGGGATT
B31: GUGAAGG (DNA:RNA)
RNA: B2 RNA with A25G, C26U, C27G, G28A, U29A
DNA 1: CAATCTGAATTCCGGTCTCCC
DNA 2: TGGTGGCTACGACGGGATT

The binders below were run against T1, RBFOX1 RRM (Homo sapiens, UniProt Q9NWB1 109-208) (assay: EMSA; HiTS-Eq, 1 nM pool, 10 min; buffer printed only for the single-RNA assays: 10 mM Tris pH 7.5, 150 mM NaCl, 3.4 mM EDTA, 0.001% NP-40, 30 C). Settings: tags: His6 N-terminal (pET28a); label: 5' 32P.
T1 sequence: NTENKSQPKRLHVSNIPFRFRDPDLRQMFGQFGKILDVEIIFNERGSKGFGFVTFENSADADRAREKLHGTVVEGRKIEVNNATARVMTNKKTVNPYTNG
How it was run: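 A pool of RNA with 7 randomized nucleotides, 5′-radiolabelled and with DNA-annealed flanks, was equilibrated at 1 nM for 10 min in 50 µL with purified RbFox RRM, wild type or mutant, across increasing protein concentrations. Free RNA was separated by 8% native PAGE, excised, reverse-transcribed, barcoded by PCR and sequenced. Relative association constants were obtained from read-count changes of each RNA species versus the control reaction and normalised to the cognate motif.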

Binder	binding signal
B1	0.00973 KA relative to UGCAUGU
B2	0.00904 KA relative to UGCAUGU
B3	0.0103 KA relative to UGCAUGU
B4	0.00144 KA relative to UGCAUGU
B5	0.00122 KA relative to UGCAUGU
B6	0.0531 KA relative to UGCAUGU
B7	0.0101 KA relative to UGCAUGU
B8	0.0189 KA relative to UGCAUGU
B9	0.00106 KA relative to UGCAUGU
B10	0.0113 KA relative to UGCAUGU
B11	0.00609 KA relative to UGCAUGU
B12	0.0152 KA relative to UGCAUGU
B13	0.0028 KA relative to UGCAUGU
B14	0.0255 KA relative to UGCAUGU
B15	0.00886 KA relative to UGCAUGU
B16	0.0134 KA relative to UGCAUGU

Binder	binding signal
B17	0.00215 KA relative to UGCAUGU
B18	0.00335 KA relative to UGCAUGU
B19	0.0132 KA relative to UGCAUGU
B20	0.0006 KA relative to UGCAUGU
B21	0.684 KA relative to UGCAUGU
B22	0.0144 KA relative to UGCAUGU
B23	0.0064 KA relative to UGCAUGU
B24	0.00837 KA relative to UGCAUGU
B25	0.00996 KA relative to UGCAUGU
B26	0.0106 KA relative to UGCAUGU
B27	0.00324 KA relative to UGCAUGU
B28	0.02 KA relative to UGCAUGU
B29	0.00803 KA relative to UGCAUGU
B30	0.00323 KA relative to UGCAUGU
B31	0.011 KA relative to UGCAUGU
